This is an account of results in the antibiotic and cytotoxicity screens of Wong et al. (2023).

For one test, the system named is HSkMC. Description: cytotoxicity call (relative viability < 0.9). The following applies: 10 µM.
In the next test the test system is HepG2. Description: cytotoxicity call (relative viability < 0.9). The following applies: 10 µM.
For the next test, the system named is S. aureus RN4220. The experiment in a line: growth inhibition call (relative growth <= 0.2). The following applies: 50 µM.

Molecules are shown by their SMILES. Some of the results follow.

As to `C[C@H](CO)N1C[C@H](C)[C@H](CN(C)S(=O)(=O)c2ccccc2)Oc2ncc(C#Cc3cccc(F)c3)cc2C1=O`, the cytotoxicity call in the test on HSkMC and with HepG2 was “inactive” throughout. Moreover, the growth inhibition call in the test on S. aureus RN4220 was “inactive”.
On to `COc1ccc(NC(=O)N(C)C[C@@H]2Oc3ccc(NC(=O)Nc4cccc5ccccc45)cc3CC(=O)N([C@@H](C)CO)C[C@H]2C)cc1`, for which the cytotoxicity call in the test on HSkMC and with HepG2 was “inactive” each time. The growth inhibition call with S. aureus RN4220 is “inactive”.
In the case of `COc1ccc(C#Cc2cnc3c(c2)C(=O)N([C@H](C)CO)C[C@@H](C)[C@H](CN(C)C(=O)CN(C)C)O3)cc1`, the cytotoxicity call in the test on HSkMC and with HepG2 was “inactive” throughout. Besides, in the test with S. aureus RN4220, the growth inhibition call is “inactive”.
As for `NC(=O)NCC#Cc1ccc2c(c1)[C@]1(C(=O)N2)[C@H](c2ccccc2OCCO)N2[C@H](c3ccccc3)[C@H](c3ccccc3)OC(=O)[C@H]2[C@@H]1C(=O)N1CCN(c2ncccn2)CC1`, the cytotoxicity call in the test on HSkMC and in the test on HepG2 was “inactive” each time. The growth inhibition call in the test on S. aureus RN4220 is “inactive”.
Consider `C[C@H]1CN([C@@H](C)CO)S(=O)(=O)c2ccc(C3=CCCC3)cc2O[C@H]1CN(C)S(=O)(=O)c1ccc(F)cc1`, for which the cytotoxicity call in the test with HSkMC and in the test with HepG2 was “inactive” throughout. Further, the growth inhibition call in the test on S. aureus RN4220 was “inactive”.
For `CN1C(=O)C[C@H](C(=O)O)[C@H]1c1cccnc1`, the cytotoxicity call with HSkMC and in the test on HepG2 was “inactive” in each case. Moreover, the growth inhibition call in the test with S. aureus RN4220 is “inactive”.
`C[C@@H]1CCCCO[C@H](CN(C)S(=O)(=O)c2cccs2)[C@@H](C)CN([C@@H](C)CO)C(=O)c2cc(NS(C)(=O)=O)ccc2O1`: the cytotoxicity call in the test on HSkMC and with HepG2 was “inactive” each time. For the same compound, in the test on S. aureus RN4220, the growth inhibition call is “inactive”.
Consider `COc1ccc(NC(=O)Nc2ccc3c(c2)[C@H]2C[C@H](CC(=O)NCc4ccccn4)O[C@H](CO)[C@H]2O3)cc1`, for which the cytotoxicity call in the test on HSkMC and with HepG2 was “inactive” throughout. The growth inhibition call in the test with S. aureus RN4220 was “inactive”.
`C[C@@H]1CN([C@H](C)CO)C(=O)c2cc(NC(=O)Nc3ccc(C(F)(F)F)cc3)ccc2O[C@H]1CN(C)S(=O)(=O)c1ccc(F)cc1`: the cytotoxicity call in the test with HSkMC and with HepG2 was “active” each time. Moreover, the growth inhibition call in the test on S. aureus RN4220 was “inactive”.
For `Cc1ccc(S(N)(=O)=O)c(C)c1`, the cytotoxicity call in the test on HSkMC and with HepG2 was “inactive” each time. Moreover, in the test on S. aureus RN4220, the growth inhibition call was “inactive”.
`C=CC[C@H](CC(=O)NCCO)C(=O)N[C@H](COC(=O)[C@@H](CC=C)CC(=O)OC(C)(C)C)Cc1c[nH]c2ccccc12`: the cytotoxicity call in the test with HSkMC and in the test with HepG2 was “inactive” in each case. Also, the growth inhibition call with S. aureus RN4220 was “inactive”.
With `C[C@@H]1CN([C@@H](C)CO)C(=O)c2cccc(NS(=O)(=O)c3cccs3)c2O[C@@H]1CN(C)S(=O)(=O)c1ccccc1`, the cytotoxicity call in the test with HSkMC and in the test on HepG2 was “inactive” in each case. Moreover, the growth inhibition call in the test on S. aureus RN4220 was “inactive”.
On to `C[C@@H]1CN([C@H](C)CO)C(=O)c2cccc(NC(=O)c3ccncc3)c2O[C@H]1CN(C)S(=O)(=O)c1cccs1`, for which the cytotoxicity call with HSkMC and in the test on HepG2 was “inactive” in each case. Further, the growth inhibition call with S. aureus RN4220 is “inactive”.
As for `COCC#Cc1cnc2c(c1)C(=O)N([C@@H](C)CO)C[C@@H](C)[C@H](CN(C)C(=O)c1ccc3c(c1)OCO3)O2`, the cytotoxicity call in the test with HSkMC and with HepG2 was “inactive” throughout. Further, in the test with S. aureus RN4220, the growth inhibition call is “inactive”.
As for `C=CCC[C@H](Cc1ccc(F)cc1)C(=O)OC[C@@H](NC(=O)[C@@H](CC=C)CC(=O)N(CCO)Cc1ccccc1)C(C)(C)C`, the cytotoxicity call in the test with HSkMC and with HepG2 was “inactive” throughout. For the same compound, in the test on S. aureus RN4220, the growth inhibition call is “inactive”.
On to `Cc1noc(C)c1S(=O)(=O)N(C)C[C@H]1Oc2ccc(NS(=O)(=O)c3cccs3)cc2C(=O)N([C@H](C)CO)C[C@H]1C`, for which the cytotoxicity call in the test on HSkMC and in the test with HepG2 was “inactive” each time. Moreover, in the test with S. aureus RN4220, the growth inhibition call was “inactive”.
For `Cc1noc(C)c1S(=O)(=O)Nc1ccc2c(c1)CC(=O)N([C@H](C)CO)C[C@H](C)[C@H](CN(C)C(=O)NC1CCCCC1)O2`, the cytotoxicity call in the test with HSkMC and with HepG2 was “inactive” throughout. In addition, the growth inhibition call in the test on S. aureus RN4220 is “inactive”.
For `C[C@@H]1CN([C@@H](C)CO)C(=O)c2cc(NS(C)(=O)=O)ccc2O[C@@H](C)CCCCO[C@H]1CN(C)S(=O)(=O)c1cn(C)cn1`, the cytotoxicity call in the test on HSkMC and in the test with HepG2 was “inactive” throughout. For the same compound, in the test with S. aureus RN4220, the growth inhibition call was “inactive”.
As to `C[C@@H]1CCCCO[C@@H](CN(C)C(=O)C2CCCCC2)[C@@H](C)CN([C@@H](C)CO)C(=O)c2cc(NS(=O)(=O)c3ccc(F)cc3)ccc2O1`, the cytotoxicity call in the test on HSkMC and with HepG2 was “inactive” throughout. Moreover, the growth inhibition call in the test on S. aureus RN4220 was “inactive”.
As for `COCC(=O)N1C[C@@H](C)[C@H](OC)CN(C)C(=O)c2cc(NC(=O)Nc3ccccc3)ccc2OC[C@H]1C`, the cytotoxicity call in the test with HSkMC and in the test on HepG2 was “inactive” throughout. In the test with S. aureus RN4220, the growth inhibition call is “inactive”.
As for `COc1ccc2c3c([nH]c2c1)[C@H](CO)N(C[C@]13CCN(CC1)Cc1ccc(cc1)F)C(=O)Nc1ccc(cc1)F`, the cytotoxicity call with HSkMC was “inactive”. Also, the cytotoxicity call with HepG2 is “active”. Further, the growth inhibition call in the test on S. aureus RN4220 is “inactive”.
As to `C[C@@H]1CN([C@@H](C)CO)C(=O)Cc2cc(NC(=O)Nc3cccc4ccccc34)ccc2O[C@@H]1CN(C)C(=O)NC1CCCCC1`, in the test on HSkMC, the cytotoxicity call was “inactive”. Moreover, in the test with HepG2, the cytotoxicity call is “active”. Besides, the growth inhibition call with S. aureus RN4220 is “inactive”.
Consider `Cc1cc(C(=O)Nc2cccc3c2O[C@H](CN(C)S(C)(=O)=O)[C@@H](C)CN([C@H](C)CO)C3=O)n(C)n1`, for which the cytotoxicity call in the test on HSkMC (human skeletal muscle cells) and with HepG2 was “inactive” in each case. The growth inhibition call in the test on S. aureus RN4220 was “inactive”.
`C[C@H]1CN([C@@H](C)CO)C(=O)Cc2cc(NS(C)(=O)=O)ccc2O[C@@H]1CN(C)C(=O)Nc1ccc(C(F)(F)F)cc1`: the cytotoxicity call in the test with HSkMC and with HepG2 was “inactive” in each case. Moreover, in the test with S. aureus RN4220, the growth inhibition call was “inactive”.
As for `C[C@@H]1CCCCO[C@H](CN(C)S(=O)(=O)c2cn(C)cn2)[C@H](C)CN([C@@H](C)CO)C(=O)c2cc(NC(=O)c3ccncc3)ccc2O1`, the cytotoxicity call in the test with HSkMC and with HepG2 was “inactive” in each case. The growth inhibition call in the test with S. aureus RN4220 is “inactive”.
Consider `COc1ccc(NC(=O)N(C)C[C@@H]2Oc3ccc(NS(=O)(=O)c4c(C)noc4C)cc3C(=O)N([C@H](C)CO)C[C@@H]2C)cc1`, for which the cytotoxicity call with HSkMC and in the test on HepG2 was “inactive” throughout. Besides, in the test on S. aureus RN4220, the growth inhibition call is “inactive”.
`C[C@@H]1CN([C@H](C)CO)C(=O)c2cccc(NS(=O)(=O)c3cn(C)cn3)c2O[C@H]1CN(C)S(=O)(=O)c1ccc(Cl)cc1`: the cytotoxicity call with HSkMC and in the test on HepG2 was “inactive” in each case. In addition, the growth inhibition call in the test with S. aureus RN4220 is “inactive”.
